{
  "source": "patent US20200237717A1",
  "about": "“Treatment of Staphylococcal and Enterococcal Infections Using Substituted Nitrostyrene Compounds” (Opal Biosciences Limited, priority 2017, published 2020)",
  "tested_on": "MRSA isolate Sa057 (VSSA)",
  "assay": "microbe, parasite or virus in culture",
  "assay_type": "cell-based, Staphylococcus aureus",
  "conditions": "for MIC: Staphylococcus aureus, MRSA",
  "note": "Read-outs that look alike come from different tables or passages of the source.",
  "data": [
    {"smiles": "C/C(=C\\c1ccc2c(c1)OCO2)[N+](=O)[O-]", "note": "[BDM-I, 3,4-methylenedioxy-β-methyl-β-nitrostyrene]", "values": [
      {"measurement": "BDM-I MIC increase", "setting": "Sa057, day 110 vs start, 6 out of 21 colonies", "result": 1.5, "unit": "µg/mL"},
      {"measurement": "MIC", "setting": "read-out: BDM-I MIC, Sa057 before passage in BDM-I", "result": 3.5, "unit": "µg/mL"},
      {"measurement": "MIC", "setting": "read-out: BDM-I MIC, Sa057 day 110 colonies, only 6 out of 21 colonies displayed the increase", "result": 5, "unit": "µg/mL"}
    ]}
  ]
}
